Laboratory results reported in PubChem BioAssay AID686970 (National Center for Advancing Translational Sciences (NCATS), 2013).
The whole screen tested about 360,000 compounds, of which about 6,000 (1.7%) were called active. Inconclusive means that the source gave no clear call. Such entries were picked first, then a sample of the others. Calls come from the whole dose curve; as a rule, active = well fitted cell-killing curve with a large enough effect; inconclusive = small, poorly fitted or top-dose-only effect, or effect the other way; inactive = flat fitted curve, though single readings scatter. Potencies of inconclusive entries are left out as doubtful fits.

experiment: qHTS for induction of synthetic lethality in tumor cells producing 2HG: qHTS for the HT-1080-NT fibrosarcoma cell line; conditions: HT-1080-NT fibrosarcoma viability, CellTiter-Glo ATP luminescence, 48 h; activity, negative = less viability: at 46.1 µM (top of the series);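 note: NT is the 2HG producing partner of a matched IDH1 knockdown line; nearly all actives have a fitted effect of over 55% in size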;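 for activity, negative = less viability: 0% = DMSO-treated cells and -100% = media-only wells without cells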
In short: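 HT-1080-NT; 750 cells/well; 5% FBS RPMI; 48 h compound, 37 degrees C; CellTiter-Glo luminescence; curve fitting and curve-class assignment.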
Potency is the fitted concentration of half-maximal effect; tags give direction and shape of the fitted curve.

| Compound | Potency | activity, negative = less viability |
| --- | --- | --- |
| CN(Cc1cccc(-c2ccncc2)c1)C(=O)Oc1ccc([N+](=O)[O-])cc1 | inconclusive [cytotoxic, partial curve, poor fit] |  |
| CCN1C(=O)CC(=O)N(CC)C1=S | inactive |  |
| Cc1ccsc1C(=O)C1CCCN(Cc2cccn2-c2ccccn2)C1 (stereo not drawn) | inconclusive [cytotoxic, single point] |  |
| CN(C)CCOC(=O)c1cn(Cc2ccccc2)c2ccccc12 | inconclusive [cytotoxic, single point] |  |
| CC(Cc1ccccc1)NC(=O)/C=C/C(=O)O (stereo not drawn) | inactive |  |
| C=CCN1C(=O)/C(=C/c2cccs2)C(=O)NC1=S | inconclusive [cytotoxic, single point] |  |
| CCN(C(=O)CN1CC=C(c2ccccc2)CC1)c1c(N)n(Cc2ccccc2)c(=O)[nH]c1=O | inactive |  |
| C[C@]12CCC3=C4CCC(=O)C=C4CC[C@H]3C1CC[C@@H]2O (stereo partly drawn) | inactive |  |
| CCOC(=O)C(O)(c1ccc(NC(=S)NC(=O)c2ccc(Cl)cc2Cl)c(C)c1)C(F)(F)F (stereo not drawn) | active: 16.4 µM |  |
| O=C(O)C(Br)CBr (stereo not drawn) |  | inconclusive: 35.8% |
| CCOc1cccc(CNCCc2c(C)[nH]c3ccc(OC(F)(F)F)cc23)c1O | inconclusive [cytotoxic, single point] |  |
| O=C1CC(N2CCC(n3c(=O)[nH]c4ccccc43)CC2)C(=O)N1Cc1ccccc1 (stereo not drawn) | inactive |  |
| Cc1cccc(-n2c(C)nc3cc(C(=O)N4CCC5(CC4)OCCO5)ccc32)c1 | inconclusive [cytotoxic, single point] |  |
| Cc1ncoc1C(=O)NCC1=C(c2cccc3ccccc23)C[C@@H]2CC[C@H]1N2Cc1ccco1 | inactive |  |
| Clc1ccc(CSc2nnc(-c3ccccn3)n2Cc2ccco2)cc1Cl | inconclusive [cytotoxic, single point] |  |
| CCOC(=O)[C@]12Cc3cc(OC)ccc3[C@H]1N(CCC(=O)OC)C(=O)c1cc(OC)ccc12 | inconclusive [cytotoxic, single point] |  |
| OCCNCCc1c[nH]c2ccc(OCc3ccccc3)cc12 | inconclusive [cytotoxic, partial curve] |  |
| O=S1(=O)N(CCN2CC=C(c3c[nH]c4cc(F)ccc34)CC2)c2cccc3c2N1CCC3 | active: 13 µM |  |
| CC1=CC(C)CC(C)OC(=O)CC(c2ccc(O)cc2)NC(=O)C(Cc2c(Br)[nH]c3ccccc23)N(C)C(=O)C(C)NC(=O)C(C)C1 (stereo not drawn) | active: 1.3 µM |  |
| O=C1C=C(N2CC2)c2ccccc2C1=O | active: 23.1 µM |  |
| CCC(C)n1c(O)c(/C=N/Nc2ccccc2)c(=O)[nH]c1=S (stereo not drawn) | inconclusive [cytotoxic, partial curve] |  |
| COc1cc(C2c3cc4c(cc3C(O)C3COC(=O)C23)OCO4)cc(OC)c1OC (stereo not drawn) | active: 0.0058 µM |  |
| CN(Cc1cccc(-c2ccncc2)c1)C(=O)Oc1ccccc1Cc1ccccc1 | active: 18.4 µM |  |
| COC(=O)C1=C(C(=O)OC)SC2(S1)C(C(=O)OC)=C(C(=O)OC)Sc1c2ssc1=O | active: 5.17 µM |  |

| Compound | Potency | activity, negative = less viability |
| --- | --- | --- |
| Cc1ccc(O)c(CN2CCN(c3ccccc3)CC2)c1 | inactive |  |
| FC(F)(F)c1ccc2c(c1)N(CCCN1CCN(CCCl)CC1)c1ccccc1S2 | inconclusive [cytotoxic, single point] |  |
| Cn1c(=O)oc2cc(NC(=O)CCl)ccc21 | inconclusive [cytotoxic, single point] |  |
| c1cc2c(cc1[C@H]1OC[C@H]3[C@@H]1CO[C@H]3c1ccc3c(c1)OCO3)OCO2 | inactive |  |
| O=C1C(=Cc2cn(-c3ccccc3)nc2-c2ccc(OCc3ccc(Cl)cc3)cc2)SC(=S)N1CCS(=O)(=O)O | inconclusive [cytotoxic, single point] |  |
| O=C1NC(=O)C(=Cc2ccc(SC3CCCCC3)o2)C(=O)N1 | inconclusive [cytotoxic, single point] |  |
| COC(=O)C1=C(c2ccc(Cl)c(C(F)(F)F)c2)C[C@@H]2CC[C@H]1N2C(=O)NCCOc1ccc(OC)cc1 | inconclusive [cytotoxic, single point] |  |
| CCCCCCC(=O)c1c(O)n(-c2ccc(OC)cc2)c(=O)[nH]c1=O (tested in a mixture with another compound) | inactive |  |
| O=C1NCN(c2ccccc2)C12CCN(C(c1ccccc1OC(F)(F)F)c1nnnn1Cc1ccccc1)CC2 (stereo not drawn) | inactive |  |
| C#CCOc1cc(C2C3=C(COC3=O)Nc3cc4c(cc32)OCO4)ccc1OC (stereo not drawn) | inactive |  |
| CCCCn1c(O)c(C(CC)=NC(C)c2ccccc2)c(=O)[nH]c1=O (stereo not drawn) | inconclusive [cytotoxic, single point] |  |
| O=C(N/N=C1/CN2CCC1CC2)c1cc2ccccc2cc1O | inconclusive [cytotoxic, partial curve] |  |
| CCCCCSc1cc(OC)c(CCNC)cc1OC | inconclusive [cytotoxic, single point] |  |
| CC(C)(C)n1nnnc1C(CCc1ccccc1)N1CCC(n2c(=O)[nH]c3ccccc32)CC1 (stereo not drawn) | inconclusive [cytotoxic, single point] |  |
| Cc1cccc(OP(=O)(Nc2ccc(F)cc2)Oc2cccc(C)c2)c1 | active: 23.1 µM |  |
| CCCCn1c(O)c(/C=C/C=Nc2ccccc2)c(=O)[nH]c1=O | inactive |  |
| c1cc2c(cc1NC1=NCCO1)CCCC2 | inconclusive [cytotoxic, single point] |  |
| NCCc1ccccc1 | inactive |  |
| CC12C=CC(=O)C=C1CC(O)C1C2CCC2(C)C1CCC2(C)O (stereo not drawn) | inactive |  |
| c1ccc(CCN2CCCCC2)nc1 | inactive |  |
| CSc1ccc(CN2CCN(C(=O)Cc3ccccc3)CC2)cc1 | inactive |  |
| NC(N)=N/N=C/c1ccc(N2CCOCC2)cc1 | inconclusive [cytotoxic, single point] |  |
| CC(C)c1ccc(NC(=O)Nc2nc(C(N)CCc3ccccc3)cs2)cc1 (stereo not drawn) | inconclusive [cytotoxic, single point] |  |
| O=[N+]([O-])c1cccc(NP(=O)(Oc2ccccc2)Oc2ccccc2)c1 | inconclusive [cytotoxic, partial curve] |  |
